Out of some 280,000 compounds screened, about 1,100 (0.39%) were called active. Inconclusive results, whose numbers are uncertain, are shown with a selection of clear calls. Calls come from the whole dose curve; as a rule, active = well fitted inhibition curve with a large enough effect; inconclusive = small, poorly fitted or top-dose-only effect, or effect the other way; inactive = flat fitted curve, though single readings scatter. Potencies of inconclusive entries are left out as doubtful fits.
target: Microtubule-associated protein tau (Homo sapiens) (UniProt P10636); experiment: qHTS for Inhibitors of Tau Fibril Formation, Fluorescence Polarization; conditions: K18 P301L tau heparin fibrillization, Alexa594 FP, 6 h; series mostly up to 57.7 µM; note: nearly all actives have a fitted effect of over 55% in size
Sequence of UniProt P10636 (P10636 whole entry, looked up, the tested form may be a part): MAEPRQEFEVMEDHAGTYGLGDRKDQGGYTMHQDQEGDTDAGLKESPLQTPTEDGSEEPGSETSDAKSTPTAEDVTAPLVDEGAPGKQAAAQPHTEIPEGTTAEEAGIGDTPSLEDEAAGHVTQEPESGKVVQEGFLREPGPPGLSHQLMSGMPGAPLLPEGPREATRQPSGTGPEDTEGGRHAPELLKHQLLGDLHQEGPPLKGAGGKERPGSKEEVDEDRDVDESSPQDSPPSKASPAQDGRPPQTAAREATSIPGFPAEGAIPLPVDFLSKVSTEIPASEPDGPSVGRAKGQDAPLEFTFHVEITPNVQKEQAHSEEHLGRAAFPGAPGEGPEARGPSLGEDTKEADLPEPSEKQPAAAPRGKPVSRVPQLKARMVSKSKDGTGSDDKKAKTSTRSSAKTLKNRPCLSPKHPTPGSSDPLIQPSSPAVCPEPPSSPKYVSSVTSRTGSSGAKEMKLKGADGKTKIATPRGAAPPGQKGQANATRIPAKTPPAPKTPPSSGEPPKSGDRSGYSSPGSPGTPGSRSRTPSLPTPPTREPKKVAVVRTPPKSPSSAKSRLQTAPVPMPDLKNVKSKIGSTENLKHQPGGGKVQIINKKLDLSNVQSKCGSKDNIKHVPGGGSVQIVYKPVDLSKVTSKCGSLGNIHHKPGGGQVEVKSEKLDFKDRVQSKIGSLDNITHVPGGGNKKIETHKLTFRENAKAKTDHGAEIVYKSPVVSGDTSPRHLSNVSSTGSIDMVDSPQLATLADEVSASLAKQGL
Procedure, shortened: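 Human tau K18 […] P301L fragment, 15 uM unlabeled plus 0.24 uM Alexa 594-labeled tau (final), with compound and 20 uM heparin in 100 mM sodium acetate pH 7; 6 hr at 37 C, then Alexa 594 FP read.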
Potency is the fitted concentration of half-maximal effect; tags give direction and shape of the fitted curve.

Row | SMILES | Potency
1 | CCC(=O)Nc1ccc2nc(SCc3ccccc3)sc2c1 | inconclusive [inhibitor, partial curve, poor fit]
2 | COc1ccc(/C=N/NC(=O)c2[nH]c3ccc(Br)cc3c2-c2ccccc2)cc1 | inconclusive [inhibitor, partial curve]
3 | COc1ccc2nc(N3CCCC3)c(C#N)cc2c1 | inactive
4 | Cc1[nH]c2ccccc2c1C(=O)CSC(=S)N1CCN(C)CC1 | inconclusive [inhibitor, single point]
5 | C=CCNC(=S)Nc1sc2c(c1C#N)CCCC2 | inactive
6 | COc1cccc(/C=C/C(=O)OCC(=O)Nc2ccc(Cl)c(S(=O)(=O)N(C)C)c2)c1OC | inconclusive [inhibitor, partial curve, poor fit]
7 | Cc1ccc(-c2nc(-c3cc4cccc(OCc5cccc(F)c5)c4oc3=O)no2)cc1 | inactive
8 | COc1cccc(-c2nc(NC(C)(C)C)c3ccccc3n2)c1O | inconclusive [activator, full curve, poor fit]
9 | S=C(NCc1ccc(Cl)c(Cl)c1)Nc1ccc2c(c1)OCO2 | inconclusive [activator, partial curve, poor fit]
10 | Cc1ccc(NC(=S)N/N=C2\CC(C)(C)Oc3ccc(O)cc32)cc1 | inconclusive [activator, single point]
11 | Cc1cc(=O)n(Cc2ccccc2Cl)c2c1c(C)nn2-c1ccccc1 | inconclusive [inhibitor, partial curve]
12 | Cc1cccc(C2=NN(c3ccccc3)[C@H](CO)[C@H]2C)c1 | inconclusive [activator, partial curve]
13 | Cc1c(NC(=O)c2ccc(Cl)cc2)cc(C(C)C)c(O)c1S(=O)(=O)c1ccccc1 | inconclusive [inhibitor, single point]
14 | CCOC(=O)N/N=C/c1ccc(F)cc1F | inconclusive [inhibitor, full curve, poor fit]
15 | Cc1cc(C)c2nc(-c3ccccn3)cc(C(=O)NCc3ccco3)c2c1 | inconclusive [inhibitor, single point]
16 | O=c1oc2ccc(F)cc2cc1-c1nc(-c2cccs2)no1 | inactive
17 | COc1ccc(C)cc1S(=O)(=O)N(C)CC(=O)NC1CC1 | inconclusive [inhibitor, partial curve]
18 | COc1cc(NC(=O)Cn2c(=O)nc(-c3ccccc3F)c3cc(Cl)ccc32)cc(OC)c1 | inconclusive [inhibitor, single point]
